# Data as given in the supplement of paper PMC4604168 (melanoma cell lines).
# Some of the results follow. Repeats are few or missing, and single values can be far off.
# System: A375
# Assay: cell count relative to DMSO control; melanoma cells; higher = more viable cells
# Conditions: library dose: low library concentration; 72 h
# 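Also: cell number obtained by counting DAPI-stained nuclei in high-throughput microscope images with image analysis software, screen run in 1,536-well plates.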
row,Structure (SMILES),cell count [%]
1,"NC1(c2ccc(-c3nc4ccn5c(=O)[nH]nc5c4cc3-c3ccccc3)cc2)CCC1 + C[As](C)SC[C@H](NC(=O)CC[C@H](N)C(=O)O)C(=O)NCC(=O)O [Darinaparsin] (first compound 0.4 µM, partner dose 0.4 µM)",102
2,"COc1ccc(-c2ccc3c(N4CCOCC4)nc(N4C[C@@H](C)O[C@@H](C)C4)nc3n2)cc1CO + O=C(Oc1ccc([N+](=O)[O-])cc1)N1CCC(C(O)(c2ccc3c(c2)OCO3)c2ccc3c(c2)OCO3)CC1 [JZL184] (first compound 0.02 µM, partner dose 1 µM)",90.7
3,"Cc1ccc(NC(=O)c2cccc(N(C)C)c2)cc1NC(=O)c1ccc(O)cc1 + O=C(Oc1ccc([N+](=O)[O-])cc1)N1CCC(C(O)(c2ccc3c(c2)OCO3)c2ccc3c(c2)OCO3)CC1 [JZL184] (first compound 2 µM, partner dose 1 µM)",89.7
4,"Cn1sc(=O)n(Cc2ccccc2)c1=O + C[C@]12O[C@H](C[C@]1(O)CO)n1c3ccccc3c3c4c(c5c6ccccc6n2c5c31)CNC4=O [Lestaurtinib] (first compound 0.4 µM, partner dose 0.004 µM)",111
5,"Cc1cc(SCc2sc(-c3ccc(C(F)(F)F)c(F)c3)nc2C)ccc1OCC(=O)O + Oc1cc(-c2nc(-c3ccccc3)[nH]c2-c2ccncc2)ccc1Cl [L779450] (first compound 2 µM, partner dose 0.2 µM)",86.9
6,"O=S(=O)(c1ccccc1)N(CC(F)(F)F)c1ccc(C(O)(C(F)(F)F)C(F)(F)F)cc1 + Cc1cc(SCc2sc(-c3ccc(C(F)(F)F)c(F)c3)nc2C)ccc1OCC(=O)O [GW0742] (first compound 1.4 µM, partner dose 2 µM)",90.7
7,"COC(=O)c1sccc1S(=O)(=O)Nc1ccc(Nc2ccccc2)cc1OC + C/C(O)=C(\C#N)C(=O)Nc1cc(Br)ccc1Br [LFM-A13] (first compound 1 µM, partner dose 2 µM)",99
8,"Cc1ccc(Nc2nccc(N(C)c3ccc4c(C)n(C)nc4c3)n2)cc1S(N)(=O)=O [Pazopanib] + N.N.[Cl][Pt][Cl] [cisplatin] (first compound 0.4 µM, partner dose 1.6 µM)",100
9,"COc1cc(Nc2ncc(F)c(Nc3ccc4c(n3)NC(=O)C(C)(C)O4)n2)cc(OC)c1OC [Tamatinib] + O=C(Oc1ccc([N+](=O)[O-])cc1)N1CCC(C(O)(c2ccc3c(c2)OCO3)c2ccc3c(c2)OCO3)CC1 [JZL184] (first compound 0.4 µM, partner dose 1 µM)",74.4

# System: C32
# Assay: as above
# Conditions: library dose: low library concentration; 72 h
row,Structure (SMILES),cell count [%]
1,"Cc1cc(N2CCOCC2)cc2[nH]c(-c3c(NC[C@@H](O)c4cccc(Cl)c4)cc[nH]c3=O)nc12 + O=C(Oc1ccc([N+](=O)[O-])cc1)N1CCC(C(O)(c2ccc3c(c2)OCO3)c2ccc3c(c2)OCO3)CC1 [JZL184] (first compound 0.2 µM, partner dose 1 µM)",97.9
2,"COc1cc2c(Oc3ccc4[nH]c(C)cc4c3F)ncnc2cc1OCCCN1CCCC1 [cediranib] + O=C(Oc1ccc([N+](=O)[O-])cc1)N1CCC(C(O)(c2ccc3c(c2)OCO3)c2ccc3c(c2)OCO3)CC1 [JZL184] (first compound 0.4 µM, partner dose 1 µM)",87.5
3,"CCN(CC)CCNC(=O)c1c(C)[nH]c(/C=C2\C(=O)Nc3ccc(F)cc32)c1C [sunitinib] + C[As](C)SC[C@H](NC(=O)CC[C@H](N)C(=O)O)C(=O)NCC(=O)O [Darinaparsin] (first compound 0.4 µM, partner dose 0.4 µM)",93.4
4,"COc1ccc2c(c1)CCC1C2CCC2(C)C(NCCCCCCN3C(=O)C=CC3=O)CCC12 (configuration not stated) + C/C(O)=C(\C#N)C(=O)Nc1cc(Br)ccc1Br [LFM-A13] (first compound 0.4 µM, partner dose 2 µM)",109
5,"COc1cc2c(Oc3ccc4[nH]c(C)cc4c3F)ncnc2cc1OCCCN1CCCC1 [cediranib] + Cc1cc(SCc2sc(-c3ccc(C(F)(F)F)c(F)c3)nc2C)ccc1OCC(=O)O [GW0742] (first compound 0.4 µM, partner dose 2 µM)",91
6,"Cn1cncc1[C@@](N)(c1ccc(Cl)cc1)c1ccc2c(c1)c(-c1cccc(Cl)c1)cc(=O)n2C [tipifarnib] + Cc1cc(SCc2sc(-c3ccc(C(F)(F)F)c(F)c3)nc2C)ccc1OCC(=O)O [GW0742] (first compound 0.01 µM, partner dose 2 µM)",108
7,"O=C(Nc1ccccc1)c1cc([N+](=O)[O-])ccc1Cl + Cc1cc(SCc2sc(-c3ccc(C(F)(F)F)c(F)c3)nc2C)ccc1OCC(=O)O [GW0742] (first compound 2 µM, partner dose 2 µM)",95.2
8,"O=C(Oc1ccc([N+](=O)[O-])cc1)N1CCC(C(O)(c2ccc3c(c2)OCO3)c2ccc3c(c2)OCO3)CC1 + O=c1cc(-c2cccc3c2Sc2ccccc2S3)oc(N2CCOCC2)c1 [KU55933] (first compound 1 µM, partner dose 1 µM)",99.2
9,"C[C@]1(c2nc3c(C(N)=O)cccc3[nH]2)CCCN1 [Veliparib] + C/C(O)=C(\C#N)C(=O)Nc1cc(Br)ccc1Br [LFM-A13] (first compound 1.4 µM, partner dose 2 µM)",99.6
10,"O=C(Nc1ccccc1)c1cc([N+](=O)[O-])ccc1Cl + O=C(Oc1ccc([N+](=O)[O-])cc1)N1CCC(C(O)(c2ccc3c(c2)OCO3)c2ccc3c(c2)OCO3)CC1 [JZL184] (first compound 2 µM, partner dose 1 µM)",93.3
11,"CCc1ccc(CCOc2ccc(CC3SC(=O)NC3=O)cc2)nc1 (configuration not stated) [pioglitazone] + O=C(Oc1ccc([N+](=O)[O-])cc1)N1CCC(C(O)(c2ccc3c(c2)OCO3)c2ccc3c(c2)OCO3)CC1 [JZL184] (first compound 2 µM, partner dose 1 µM)",95.9
12,"O=C(Nc1cc(C(F)(F)F)cc(C(F)(F)F)c1)c1cc(Cl)ccc1O + Cn1cc(C2=C(c3cn(C4CCN(Cc5ccccn5)CC4)c4ccccc34)C(=O)NC2=O)c2ccccc21 [Enzastaurin] (first compound 0.016 µM, partner dose 0.8 µM)",121
13,"Cc1ccc(Nc2nccc(N(C)c3ccc4c(C)n(C)nc4c3)n2)cc1S(N)(=O)=O [Pazopanib] + Cn1cc(C2=C(c3cn(C4CCN(Cc5ccccn5)CC4)c4ccccc34)C(=O)NC2=O)c2ccccc21 [Enzastaurin] (first compound 0.4 µM, partner dose 0.8 µM)",94.3
14,"O=C(Nc1cc(C(F)(F)F)cc(C(F)(F)F)c1)c1cc(Cl)ccc1O + N.N.[Cl][Pt][Cl] [cisplatin] (first compound 0.016 µM, partner dose 1.6 µM)",94.2
15,"O=C(Nc1cccc(Cl)c1)Nc1ncc(CCNc2ncnc3ccsc23)s1 + O=C(Oc1ccc([N+](=O)[O-])cc1)N1CCC(C(O)(c2ccc3c(c2)OCO3)c2ccc3c(c2)OCO3)CC1 [JZL184] (first compound 0.0008 µM, partner dose 1 µM)",106
16,"N#Cc1c(O)c2c(-c3ccc(-c4ccccc4O)cc3)csc2[nH]c1=O + Cc1cc(SCc2sc(-c3ccc(C(F)(F)F)c(F)c3)nc2C)ccc1OCC(=O)O [GW0742] (first compound 2 µM, partner dose 2 µM)",97.5
17,"O=C(Nc1cccc(Cl)c1)Nc1ncc(CCNc2ncnc3ccsc23)s1 + Cc1cc(SCc2sc(-c3ccc(C(F)(F)F)c(F)c3)nc2C)ccc1OCC(=O)O [GW0742] (first compound 0.0008 µM, partner dose 2 µM)",68.3
18,"O=C(Oc1ccc([N+](=O)[O-])cc1)N1CCC(C(O)(c2ccc3c(c2)OCO3)c2ccc3c(c2)OCO3)CC1 + Cn1cc(/C=C2\C(=O)Nc3cccnc32)c2ccccc21 [GW441756] (first compound 1 µM, partner dose 0.4 µM)",93.5
19,"Cn1cnc2c(F)c(Nc3ccc(Br)cc3Cl)c(C(=O)NOCCO)cc21 [selumetinib] + C[As](C)SC[C@H](NC(=O)CC[C@H](N)C(=O)O)C(=O)NCC(=O)O [Darinaparsin] (first compound 0.015 µM, partner dose 0.4 µM)",98.1
20,"CN(C)S(=O)(=O)c1ccc2c(c1)/C(=C/c1cc3c([nH]1)CCCC3)C(=O)N2 + Cc1cc(SCc2sc(-c3ccc(C(F)(F)F)c(F)c3)nc2C)ccc1OCC(=O)O [GW0742] (first compound 0.4 µM, partner dose 2 µM)",101
21,"C/C(O)=C(\C#N)C(=O)Nc1cc(Br)ccc1Br + CC(C)CCN1c2nc(Nc3cc(F)c(O)c(F)c3)ncc2N(C)C(=O)C1C [BID1870] (first compound 2 µM, partner dose 0.2 µM)",101
22,"Cc1cc(N2CCOCC2)cc2[nH]c(-c3c(NC[C@@H](O)c4cccc(Cl)c4)cc[nH]c3=O)nc12 + C/C(O)=C(\C#N)C(=O)Nc1cc(Br)ccc1Br [LFM-A13] (first compound 0.2 µM, partner dose 2 µM)",91.6
23,"CN(C)S(=O)(=O)c1ccc2c(c1)/C(=C/c1cc3c([nH]1)CCCC3)C(=O)N2 + O=C(Oc1ccc([N+](=O)[O-])cc1)N1CCC(C(O)(c2ccc3c(c2)OCO3)c2ccc3c(c2)OCO3)CC1 [JZL184] (first compound 0.4 µM, partner dose 1 µM)",95.6
